# Test results taken from the supplement of paper PMC7125110.
# ± gives the standard error. This sample is rich in variants without activity.
# B1: glmS ribozyme (parent)
# chain: AUAAAAGCGCCAGAACUACAGAAAUGUAGUUGACGAGGAGGAGGUUUAUCGAAUUUUCGGCGGAUGCCUCCAAA
# Columns and labels:
# Conditions in all cases: with glucosamine-6-phosphate
# [1] = variants of: B1; assay: self-cleavage kobs at 40 uM GlcN6P; higher = faster cleavage; RNA array
# Procedure, shortened: (§1)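 Over ~14 h at 37 °C, tiles were imaged as glucosamine-6-phosphate (40 μM to 10 mM) in HEPES/KCl/Mg(OAc)2 buffer flowed across sequenced MiSeq chips. The chips carried barcoded ribozyme variants transcribed in situ by E. coli RNA polymerase and tracked with a hybridised Cy3 probe. After normalisation to baseline and to non-cleaving reference variants, one- or two-exponential decay fits of per-tile medians gave kobs. kcat and KM followed from weighted Michaelis–Menten fits across concentrations.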
# [2] = variants of: B1; assay: self-cleavage kobs at 160 uM GlcN6P; higher = faster cleavage; RNA array
# Procedure, shortened: as §1
# [3] = variants of: B1; assay: self-cleavage kobs at 2500 uM GlcN6P; higher = faster cleavage; RNA array
# Procedure, shortened: as §1
# [4] = variants of: B1; assay: self-cleavage kobs at 10000 uM GlcN6P; higher = faster cleavage; RNA array
# Procedure, shortened: as §1
# [5] = variants of: B1; assay: self-cleavage kobs at 640 uM GlcN6P; higher = faster cleavage; RNA array
# Procedure, shortened: as §1
Variant,self-cleavage kobs at 40 uM GlcN6P [1] [s⁻¹],self-cleavage kobs at 160 uM GlcN6P [2] [s⁻¹],self-cleavage kobs at 2500 uM GlcN6P [3] [s⁻¹],self-cleavage kobs at 10000 uM GlcN6P [4] [s⁻¹],self-cleavage kobs at 640 uM GlcN6P [5] [s⁻¹]
G32A G35C,< 1e-05,< 1e-05,< 1e-05,< 1e-05,–
G32A G35U,< 1e-05,< 1e-05,–,< 1e-05,< 1e-05
A15G C61U,< 1e-05,–,–,–,–
C34U A64U,< 1e-05,–,< 1e-05,–,< 1e-05
A15G G51C U54G,< 1e-05,–,< 1e-05,–,–
A36G G63C,< 1e-05,–,–,< 1e-05,< 1e-05
G37C A39C A52G,< 1e-05,–,< 1e-05,< 1e-05,< 1e-05
A33C G62U,< 1e-05,–,< 1e-05,< 1e-05,–
C34G G44A,< 1e-05,< 1e-05,< 1e-05,< 1e-05,< 1e-05
G29C G35A,< 1e-05,< 1e-05,< 1e-05,< 1e-05,< 1e-05
G37U G38C,< 1e-05,< 1e-05,< 1e-05,–,–
G35U C68G,0.000484 ± 0.00019,–,–,–,–
G38A G63C U65C,< 1e-05,–,< 1e-05,< 1e-05,–
C34U A64U C67A,< 1e-05,–,–,< 1e-05,–
A33U G35A U65A,< 1e-05,–,–,–,–
G32C G40A C50U C68A,< 1e-05,–,–,–,–
A36G A48U,< 1e-05,< 1e-05,< 1e-05,< 1e-05,< 1e-05
G38A C61U,< 1e-05,–,–,–,–
A33G C58U,< 1e-05,–,< 1e-05,< 1e-05,–
U30A A64C,< 1e-05,< 1e-05,–,–,–
U30C G40C U49G G51A,< 1e-05,–,–,< 1e-05,–
C16A G43C G66C,< 1e-05,–,–,< 1e-05,–
C16U G32C U54C,< 1e-05,< 1e-05,–,–,–
G32A G59U,< 1e-05,–,–,–,< 1e-05

Variant,self-cleavage kobs at 40 uM GlcN6P [1] [s⁻¹],self-cleavage kobs at 160 uM GlcN6P [2] [s⁻¹],self-cleavage kobs at 2500 uM GlcN6P [3] [s⁻¹],self-cleavage kobs at 10000 uM GlcN6P [4] [s⁻¹],self-cleavage kobs at 640 uM GlcN6P [5] [s⁻¹]
G29C A42G A53C C68A,< 1e-05,–,–,–,–
U31C C61U,< 1e-05,–,–,–,< 1e-05
C16A A53G,7.66e-05 ± 1.7e-05,0.000134 ± 3.8e-05,0.000777 ± 0.00017,0.0017 ± 0.00029,0.000374 ± 9.2e-05
C16A A52G,< 1e-05,–,–,–,–
U31A C34U,< 1e-05,–,< 1e-05,–,< 1e-05
A15U G43U U54C G60C C70G,< 1e-05,–,–,< 1e-05,–
G32C U56C,< 1e-05,< 1e-05,–,–,< 1e-05
C16A A36C,< 1e-05,–,–,< 1e-05,–
G29C U30C,< 1e-05,–,–,–,< 1e-05
U31C A48C,< 1e-05,–,–,–,–
U31C G38A U56C,< 1e-05,–,–,< 1e-05,–
G35C G37A,< 1e-05,–,< 1e-05,–,–
G38C U54C,< 1e-05,–,–,–,< 1e-05
C16G U49A,< 1e-05,–,< 1e-05,–,< 1e-05
G37C A48C C50A U69A,< 1e-05,–,–,–,–
G35U G44U,< 1e-05,< 1e-05,< 1e-05,< 1e-05,< 1e-05
A36G A39U G44C,< 1e-05,–,–,< 1e-05,–
G35U U45A U57C C67A C68A,< 1e-05,–,–,–,–
G29A U30C A36C G44U U56C U57G,< 1e-05,–,< 1e-05,–,< 1e-05
A15U G29A C34G,< 1e-05,–,–,–,–
C16U U54C,0.000813 ± 0.00013,0.00146 ± 0.00024,0.00606 ± 0.0012,0.0254 ± 0.0047,0.00641 ± 0.001
U30C G38U G43C U46G,< 1e-05,–,–,–,–
G29A U31C G43U,< 1e-05,–,–,< 1e-05,< 1e-05
C34A G62U,< 1e-05,–,< 1e-05,–,< 1e-05

Variant,self-cleavage kobs at 40 uM GlcN6P [1] [s⁻¹],self-cleavage kobs at 160 uM GlcN6P [2] [s⁻¹],self-cleavage kobs at 2500 uM GlcN6P [3] [s⁻¹],self-cleavage kobs at 10000 uM GlcN6P [4] [s⁻¹],self-cleavage kobs at 640 uM GlcN6P [5] [s⁻¹]
G32U G41C,< 1e-05,< 1e-05,–,–,–
A36G U65A,< 1e-05,< 1e-05,< 1e-05,< 1e-05,< 1e-05
G35C A36G,< 1e-05,< 1e-05,< 1e-05,< 1e-05,< 1e-05
G32A G38U,< 1e-05,< 1e-05,< 1e-05,–,< 1e-05
G32A G62C,< 1e-05,–,< 1e-05,< 1e-05,< 1e-05
G35C A42C,< 1e-05,< 1e-05,< 1e-05,< 1e-05,–
G37U U56A,< 1e-05,–,–,< 1e-05,–
U30C G59C,< 1e-05,–,< 1e-05,< 1e-05,< 1e-05
G29U A33G U65G,< 1e-05,–,–,< 1e-05,–
G35U G60C A64U,< 1e-05,–,–,–,–
G38C U46C,< 1e-05,–,< 1e-05,< 1e-05,< 1e-05
A36G G62U,< 1e-05,–,< 1e-05,< 1e-05,< 1e-05
G29C C58G,< 1e-05,–,6.23e-05 ± 2.1e-05,4.93e-05 ± 1.5e-05,–
G32C U46A U49A,< 1e-05,–,–,< 1e-05,–
A33C G38C G44U,< 1e-05,–,< 1e-05,< 1e-05,–
U31G G63A,< 1e-05,< 1e-05,< 1e-05,< 1e-05,< 1e-05
C16U G29C G37A G44A,< 1e-05,–,–,–,–
C34G C61U,< 1e-05,< 1e-05,< 1e-05,< 1e-05,–
G29U G41C,< 1e-05,< 1e-05,–,–,–
C34U G38A,< 1e-05,–,–,< 1e-05,< 1e-05
G38A A53U,< 1e-05,–,–,–,< 1e-05
G29A A48U G51C C61U,< 1e-05,–,–,–,–
C34G G60C,< 1e-05,< 1e-05,< 1e-05,< 1e-05,< 1e-05
G32U A36U A52C,< 1e-05,–,< 1e-05,–,–

Variant,self-cleavage kobs at 40 uM GlcN6P [1] [s⁻¹],self-cleavage kobs at 160 uM GlcN6P [2] [s⁻¹],self-cleavage kobs at 2500 uM GlcN6P [3] [s⁻¹],self-cleavage kobs at 10000 uM GlcN6P [4] [s⁻¹],self-cleavage kobs at 640 uM GlcN6P [5] [s⁻¹]
C16U C34U,< 1e-05,< 1e-05,–,< 1e-05,–
C19A G40C,7.99e-05 ± 1.9e-05,0.000173 ± 5.2e-05,0.00156 ± 0.00041,0.00113 ± 0.00023,0.000434 ± 0.00012
A33U A53C,< 1e-05,–,< 1e-05,< 1e-05,< 1e-05
A33G U45G U54G C61U,< 1e-05,–,–,< 1e-05,–
A33C C67A,< 1e-05,–,< 1e-05,–,–
G35A A64C,< 1e-05,< 1e-05,< 1e-05,< 1e-05,< 1e-05
G32C G40A,< 1e-05,< 1e-05,–,1.99e-05 ± 7.3e-06,–
A36G G44C,< 1e-05,–,–,< 1e-05,–
A15U A42C C68G,< 1e-05,–,–,–,–
C16A G29C G37U,< 1e-05,–,< 1e-05,–,–
G29C A33G G38A G40C G43C,< 1e-05,–,–,–,–
C34U G66A,< 1e-05,–,–,< 1e-05,< 1e-05
A15U G44C,< 1e-05,–,–,–,–
G29U G35C,< 1e-05,< 1e-05,< 1e-05,< 1e-05,< 1e-05
C16U G35U,< 1e-05,< 1e-05,–,< 1e-05,< 1e-05
U31C A52C,< 1e-05,< 1e-05,< 1e-05,< 1e-05,–
G29U A53G,0.000165 ± 2.5e-05,0.000262 ± 5.4e-05,0.0021 ± 0.00029,0.00417 ± 0.00059,0.000805 ± 0.00012
U30C G43C C61A,< 1e-05,–,–,< 1e-05,–
A36C A53C,< 1e-05,< 1e-05,< 1e-05,< 1e-05,< 1e-05
A36G A42G,< 1e-05,< 1e-05,–,–,< 1e-05
G35U U46A,< 1e-05,–,< 1e-05,< 1e-05,< 1e-05
